{"source": "patent US20080044436A1", "about": "(published 2008)", "binders": {"B1": {"name": "GST protein (other)", "chain": "not shown", "notes": "Negative control in the pull-down assays; also called GST alone"}}, "target": "T1, Sp1 transcription factor (UniProt P08047 1-785, limits assumed)", "T1 construct": "In the pull-down it was 35S-labelled and synthesized in vitro in rabbit reticulocyte lysate; In the reporter assays it was expressed in HeLa cells from pcDNA3-Sp1; also called 35S-[Sp1]; 35-[S]-Sp1", "T1 sequence (P08047 whole entry)": "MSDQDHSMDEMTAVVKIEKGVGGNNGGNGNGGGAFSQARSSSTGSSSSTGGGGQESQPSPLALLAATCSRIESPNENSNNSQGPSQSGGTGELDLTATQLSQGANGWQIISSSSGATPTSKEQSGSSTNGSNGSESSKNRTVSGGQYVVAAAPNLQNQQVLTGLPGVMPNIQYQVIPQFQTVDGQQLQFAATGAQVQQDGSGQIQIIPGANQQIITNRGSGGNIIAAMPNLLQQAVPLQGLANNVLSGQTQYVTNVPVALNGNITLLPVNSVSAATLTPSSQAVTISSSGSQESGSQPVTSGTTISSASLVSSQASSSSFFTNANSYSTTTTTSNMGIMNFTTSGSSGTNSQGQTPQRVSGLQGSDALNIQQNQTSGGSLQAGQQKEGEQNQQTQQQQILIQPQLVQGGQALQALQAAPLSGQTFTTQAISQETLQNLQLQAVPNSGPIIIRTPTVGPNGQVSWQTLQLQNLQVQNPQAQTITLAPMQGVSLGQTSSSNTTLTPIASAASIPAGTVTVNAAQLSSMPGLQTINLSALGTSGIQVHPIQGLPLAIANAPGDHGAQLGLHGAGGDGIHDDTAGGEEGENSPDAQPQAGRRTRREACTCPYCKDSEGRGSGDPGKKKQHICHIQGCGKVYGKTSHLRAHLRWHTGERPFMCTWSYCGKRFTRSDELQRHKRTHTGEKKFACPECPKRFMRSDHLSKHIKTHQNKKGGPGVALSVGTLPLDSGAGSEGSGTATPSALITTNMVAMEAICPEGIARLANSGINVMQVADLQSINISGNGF", "assay": "GST pull-down on glutathione-Sepharose with 35S-labelled Sp1"}
{"binder": "B1", "values": [{"measurement": "binding result", "value": "no binding"}]}
